From article PMC4336329 (PLoS ONE, 2015)
The whole screen tested about 310,000 compounds, of which about 2,200 (0.71%) showed an effect of 50% or more. Effects have a minus sign here. This is one part of the list.

target: human ether-à-go-go-related gene (hERG) potassium channel (human, UniProt Q12809); assay: primary screen, population patch clamp on CHO cells stably expressing hERG
Sequence (Q12809 whole entry, looked up): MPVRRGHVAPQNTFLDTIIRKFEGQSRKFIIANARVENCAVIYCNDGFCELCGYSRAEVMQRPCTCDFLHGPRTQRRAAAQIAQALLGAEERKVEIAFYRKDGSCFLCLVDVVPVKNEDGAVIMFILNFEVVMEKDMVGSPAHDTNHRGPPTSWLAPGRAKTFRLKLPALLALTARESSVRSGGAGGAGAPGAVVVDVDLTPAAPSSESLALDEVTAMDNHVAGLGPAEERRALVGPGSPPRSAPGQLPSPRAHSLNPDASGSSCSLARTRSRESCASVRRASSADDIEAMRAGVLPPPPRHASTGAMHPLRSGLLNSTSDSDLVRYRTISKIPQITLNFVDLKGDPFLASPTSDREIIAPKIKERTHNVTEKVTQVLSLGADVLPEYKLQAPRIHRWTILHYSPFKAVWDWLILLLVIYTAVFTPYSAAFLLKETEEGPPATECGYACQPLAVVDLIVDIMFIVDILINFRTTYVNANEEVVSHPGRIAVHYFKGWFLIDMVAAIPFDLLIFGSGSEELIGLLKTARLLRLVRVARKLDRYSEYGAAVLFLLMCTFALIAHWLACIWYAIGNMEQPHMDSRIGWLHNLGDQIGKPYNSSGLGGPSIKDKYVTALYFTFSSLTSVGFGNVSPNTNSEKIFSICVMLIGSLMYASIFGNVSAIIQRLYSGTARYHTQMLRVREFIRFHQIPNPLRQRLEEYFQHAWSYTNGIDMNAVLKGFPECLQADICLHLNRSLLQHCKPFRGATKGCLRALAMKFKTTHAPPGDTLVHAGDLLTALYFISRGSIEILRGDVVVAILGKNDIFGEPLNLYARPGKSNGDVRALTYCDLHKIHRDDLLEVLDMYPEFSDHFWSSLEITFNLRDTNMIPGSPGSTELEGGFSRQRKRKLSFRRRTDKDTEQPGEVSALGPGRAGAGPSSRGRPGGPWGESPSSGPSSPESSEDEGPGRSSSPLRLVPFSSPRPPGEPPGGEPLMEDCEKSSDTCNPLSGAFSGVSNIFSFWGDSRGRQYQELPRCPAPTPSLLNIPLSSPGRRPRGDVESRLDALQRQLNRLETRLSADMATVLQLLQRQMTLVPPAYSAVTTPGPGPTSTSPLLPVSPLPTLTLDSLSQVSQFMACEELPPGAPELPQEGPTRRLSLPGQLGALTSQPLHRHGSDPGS

Structure (SMILES)	hERG current change (%, negative = inhibition) at 1uM [%]
O=C(N/N=C1\CCCc2ccccc21)c1ccc([N+](=O)[O-])cc1	-2.14
COc1ccc(-n2c(=O)c(CCC(=O)N3CCC(C)CC3)nc3ccccc32)cc1	7.44
CN(CC(=O)Nc1ccc(Cl)cc1)C(=O)c1cccc(S(=O)(=O)N(C)C)c1	2.8
CNC(=O)c1cccc2nc3ccccc3nc12	13.2
Cc1ccsc1/C=N/NC(=O)c1cc(-c2ccncc2)nc2ccccc12	10.7
COc1ccc(N2CCN(C3CCCN(C(=O)CN4CCCCC4=O)C3)CC2)cc1 (centres unmarked)	15
N#C/C(=C\c1ccc[nH]1)C(=O)c1ccccc1	20.9
CN(c1ccccc1)S(=O)(=O)c1ccc(NC(=O)c2cccs2)cc1	10.8
CCOc1ccc(CN2CCC(C(=O)Nc3cccc(-c4ccn[nH]4)c3)CC2)cc1Cl	-8.18
Cc1[nH]c2ccc(C(=O)NCC(C)(C)N3CCOCC3)cc2c1C	4.36
CCc1ccc(-c2nc(CN3CCC(C(=O)NCc4ccco4)CC3)c(C)o2)cc1	-51.1
COc1cccc(CN2CCNC(=O)C2CC(=O)NCCCn2ccnc2)c1 (centres unmarked)	31.2
CNC(=S)NNC(=O)c1ccc(N(C)C)cc1	12.1
COc1cccc(C(O)C2OC(=O)c3ccccc32)c1OC (centres unmarked)	14.7
CCS(=O)(=O)N1CCC(c2nc(-c3ccc(C(F)(F)F)cc3)no2)CC1	-3.65
Cc1ccccc1-n1c(Cn2c(=O)sc3ccccc32)nnc1SC(C)C	11.1
COc1ccc(C(=O)CSc2nnn(-c3cccc(NC(C)=O)c3)n2)cc1	9.23
O=C(COc1ccccc1C(=O)NCc1ccccn1)Nc1ccc(Br)cc1	12.6
CSc1ccccc1C(=O)Nc1ccc(C)c(C)c1	8.81
O=C(CCNS(=O)(=O)c1ccc(Br)cc1)N1CCN(c2ccccc2O)CC1	-2.36
Cc1ccc(S(=O)(=O)N2CCCC(N3CCOCC3)C2)cc1Cl (centres unmarked)	15.3
CCN(CC)CCNC(=O)c1cccc(NC(=O)C(=O)c2ccccc2NC(C)=O)c1	5.64

Structure (SMILES)	hERG current change (%, negative = inhibition) at 1uM [%]
Cn1ncc(Br)c1C(=O)NCc1cccs1	4.27
COc1cc(/C=C2/C(=O)NC(=O)N(c3ccccc3)C2=O)ccc1O	4.18
COc1cc(C2CC(=O)N(c3ccc(C)cc3)C(=O)C2)cc(OC)c1OC	13
O=C(NCCCn1ccnc1)c1ccc(C(F)(F)F)cc1	7.36
COc1ccc(CC(=O)NC(C)c2nnc(SCCC(=O)Nc3ccccc3)n2C)cc1 (centres unmarked)	11.2
CNC(=O)NC(=O)COc1ccc2oc3c(c2c1)CCCC3	7.84
N#CC1=C(N)SC(N)=C(C#N)C1c1ccc(C(F)(F)F)cc1	9.49
CNC(=O)CN(c1cc([N+](=O)[O-])ccc1OC)S(C)(=O)=O	12.7
Cc1ccccc1OCCn1c(C)nc2ccccc21	10.5
COc1ccccc1NC(=O)CSc1nc(C)c2c(c1C#N)CCCC2	5.89
CC(=O)c1c(C)n(C)c2ccc(OC(=O)c3ccco3)cc12	0.829
O=C(NCC1CCCO1)c1cnn2c1NC(c1ccccc1)CC2C(F)(F)F (centres unmarked)	11
O=C(NCC1CCCO1)c1ccc2c(=O)n(Cc3ccco3)c(SCC(=O)N3CCCC3)nc2c1 (centres unmarked)	-54
CCOC(=O)/C(=N/O)C1=NC(C)(C)Cc2cc(C)c(C)cc21	11.7
CCOc1ccc(N2CC(C(=O)NNC(=O)c3ccc(F)cc3)CC2=O)cc1 (centres unmarked)	2.25
O=C(NC1CCN(S(=O)(=O)c2ccccc2)CC1)c1ccc(F)cc1	-8.42
O=C(CCNS(=O)(=O)c1ccc(Br)cc1)NC1CCC(O)CC1 (centres unmarked)	11.1
Cc1ccc(Oc2ccc(C(=O)NC3CCSC3=O)cn2)cc1 (centres unmarked)	7.31
COc1ccccc1NC(=O)C(=O)N/N=C(\C)CC(=O)Nc1ccccc1C(F)(F)F	14.4
N#Cc1c(NC(=O)CN2CCOCC2)oc(-c2ccccc2)c1-c1ccccc1	4.87
Cc1ccc(S(=O)(=O)N2CCC(N3CCCCCC3)CC2)cc1	7.84
CCCN(CC(=O)Nc1ccccc1C)C(=O)c1ccc(=O)n(Cc2ccccc2)n1	14.1
